# Source: the supplement of paper PMC8728848
# This is one part of the list.
# B1: Cohesin-marm-DC-ASGPR-CRD (protein)
# chain: LDITSHHHHHHDDLDAVRIKVDTVNAKPGDTVRIPVRFSGIPSKGIANCDFVYSYDPNVLEIIEIEPGDIIVDPNPDKSFDTAVYPDRKIIVFLFAEDSGTGAYAITKDGVFATIVAKVKEGAPNGLSVIKFVEVGGFANNDLVEQKTQFFDGGVNVGDTTEPATPTTPVTTPTTTDDLDAASCPINWVEHQGSCYWFSRSGKTWPEAERYCQLENTHLVVINSREEQNFVQAHLGSAYTWMGLSDPEGVWKWVDGTDYSSGFQNWKPGQPDDWQGHGLGGGEDCAHFHPDGRWNDDVCQRSYHWVCEAGLTQASQDSH
# Tests used:
# [1] = molecular target: Neu5Gc(a2-8)Neu5Gc(a2-6)Gal(b1-4)GlcNAc; assay: glycan array binding signal (z-score within array); higher = stronger binding; settings: glycan notation: IUPAC condensed, linker removed
# How it was run: (§1)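 Glycan array data were curated from 3228 arrays in the Consortium for Functional Glycomics database and kept only where the protein sequence was available. Glycan names were converted to IUPAC-condensed notation, and columns mapping to the same glycan were averaged. The binding signal is a within-array Z-score, averaged across arrays of the same protein sequence at different concentrations or buffers and across linkers. Negative Z-scores can be read as non-binding.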
# [2] = molecular target: Neu5Gc(b2-6)Gal(b1-4)GlcNAc; assay: as above; settings: glycan notation: IUPAC condensed, linker removed
# How it was run: as §1
binder,measurement,setting,value
B1,glycan array binding signal (z-score),[1],-0.447
same,glycan array binding signal (z-score),[2],-0.434
